Assay results: a collection of fitness landscapes (doi:10.1016/j.celrep.2020.107928)
Over roughly 81,000 sequences, “one-hybrid fitness for binding NBS DNA” has its median near -0.1; the highest 2% begin near 0.36. This is one part of the list.

B1: Caulobacter ParB omega fusion; a variant is named by its letters at X, in order, B8GW30 (parent)
chain: MESVVVGEPGMSEGRRGLGRGLSALLGEVDAAPAQAPGEQLGGSREAPIEILQRNPDQPRRTFREEDLEDLSNSIREKGVLQPILVRPSPDTAGEYQIVAGERAWRAAQRAGLKTVPIMVRELDDLAVLEIGIIENVQRADLNVLEEALSYKVLMEKFERTQENIAQTIGKSXSHVANXMRLLXLPDEVQSYLVSGELTAXHARAIAAAADPVALAKQIIEGGLSVRETEALARKAPNLSAGKSKGGRPPRVKDTDTQALESDLSSVLGLDVSIDHRGSTGTLTITYATLEQLDDLCNRLTRGI

Variants of: B1
Assay: one-hybrid fitness for binding NBS DNA (the Noc-binding site; scaled: cognate 1, non-cognate 0); higher = stronger binding
Conditions: with NBS DNA site
In short: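 Fitness here means the log change in variant-to-wild-type read ratio between plasmids sequenced before and after selection. That scale was set so cognate equals 1 and non-cognate equals 0. The selection was a bacterial one-hybrid screen of Caulobacter ParB libraries, four specificity codons randomised, in E. coli USO carrying a HIS3 reporter with the site 19 bp from the promoter, grown 48 hours at 37°C on M9-minus-histidine with 0.1 mM IPTG and 5 mM 3-AT.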

Variant	one-hybrid fitness for binding NBS DNA
QKRM	0.4
TRCT	0.259
PVLA	≤ 0.2
DNNF	≤ 0.2
NADR	≤ 0.2
QMNC	≤ 0.2
QHHQ	≤ 0.2
TIAT	≤ 0.2
KTST	≤ 0.2
TELC	≤ 0.2
CPYI	≤ 0.2
FGPS	≤ 0.2
SFHI	≤ 0.2
MGRS	≤ 0.2
WYYC	≤ 0.2
ITTT	≤ 0.2
NMHR	≤ 0.2
DLPK	≤ 0.2
EASS	≤ 0.2
MCMY	≤ 0.2
ASEF	≤ 0.2
VPGF	≤ 0.2
KHTC	≤ 0.2
MRPA	≤ 0.2

Variant	one-hybrid fitness for binding NBS DNA
ELNS	≤ 0.2
KAPE	≤ 0.2
KITC	≤ 0.2
DVER	≤ 0.2
QGWN	≤ 0.2
MECS	≤ 0.2
AANW	≤ 0.2
CSIN	≤ 0.2
VITL	≤ 0.2
QKVW	≤ 0.2
YWKC	≤ 0.2
CHDR	≤ 0.2
QRHM	0.438
QCAM	≤ 0.2
KAYR	≤ 0.2
WTPT	≤ 0.2
HNNC	≤ 0.2
RFWV	≤ 0.2
GEKT	≤ 0.2
TNDW	≤ 0.2
LVIM	≤ 0.2
FCAG	≤ 0.2
SESR	≤ 0.2
FIWG	≤ 0.2

Variant	one-hybrid fitness for binding NBS DNA
MDHY	≤ 0.2
LYMH	≤ 0.2
QSTV	≤ 0.2
MIKI	≤ 0.2
LERV	≤ 0.2
VRPC	≤ 0.2
LRHS	≤ 0.2
NTVH	≤ 0.2
RVPE	≤ 0.2
ICFR	≤ 0.2
RYPE	≤ 0.2
GDHG	≤ 0.2
IWRM	≤ 0.2
LKII	≤ 0.2
SIHG	≤ 0.2
RFVQ	≤ 0.2
PPPT	≤ 0.2
MLNR	≤ 0.2
RNNK	≤ 0.2
KKRG	≤ 0.2
RDSQ	≤ 0.2
IQTG	≤ 0.2
YRLR	≤ 0.2
VDRI	≤ 0.2

Variant	one-hybrid fitness for binding NBS DNA
CHDG	≤ 0.2
WWQS	≤ 0.2
LITM	≤ 0.2
EAHN	≤ 0.2
HDPC	≤ 0.2
NTVW	≤ 0.2
MLIR	≤ 0.2
NATT	≤ 0.2
MRIW	≤ 0.2
YGVC	≤ 0.2
FSRR	≤ 0.2
AVPK	≤ 0.2
QYMA	≤ 0.2
KGMW	≤ 0.2
QSDL	≤ 0.2
RGGW	≤ 0.2
TTKS	≤ 0.2
MNLW	≤ 0.2
APRV	≤ 0.2
IFTT	≤ 0.2
LDMI	≤ 0.2
WPKS	≤ 0.2
HFGI	≤ 0.2
SMRA	≤ 0.2

Variant	one-hybrid fitness for binding NBS DNA
QTWV	≤ 0.2
PLGR	≤ 0.2
EKTR	≤ 0.2
GMEG	≤ 0.2
RWLG	≤ 0.2
YYLT	≤ 0.2
CIAR	≤ 0.2
ASQW	≤ 0.2
DERY	≤ 0.2
SFEG	≤ 0.2
SLNQ	≤ 0.2
GKTR	≤ 0.2
PGMV	≤ 0.2
YGYV	≤ 0.2
YNNI	≤ 0.2
VYRM	≤ 0.2
SDDS	≤ 0.2
FPVR	≤ 0.2
TSMS	≤ 0.2
KGGW	≤ 0.2
PMQG	≤ 0.2
RQDT	0.268
AWNN	≤ 0.2
INIG	≤ 0.2

Variant	one-hybrid fitness for binding NBS DNA
FILL	≤ 0.2
KSMG	≤ 0.2
QVPE	≤ 0.2
QGGG	≤ 0.2
RSHD	≤ 0.2
WRHM	≤ 0.2
RKQP	≤ 0.2
WPMS	≤ 0.2
SNLM	≤ 0.2
IGHI	≤ 0.2
RMQV	≤ 0.2
EPTC	≤ 0.2
RPQC	≤ 0.2
VRYG	≤ 0.2
KRAY	≤ 0.2
SKAR	≤ 0.2
LHHT	≤ 0.2
PYDY	≤ 0.2
DNSY	≤ 0.2
RSWM	≤ 0.2
WCLS	≤ 0.2
VLSW	≤ 0.2
VEWF	≤ 0.2
LSPY	≤ 0.2

Variant	one-hybrid fitness for binding NBS DNA
PSTC	≤ 0.2
VTNR	≤ 0.2
QVME	≤ 0.2
DTGM	≤ 0.2
TAMG	≤ 0.2
TVFV	≤ 0.2
KKHS	≤ 0.2
TARK	≤ 0.2
QWFR	≤ 0.2
PVPE	≤ 0.2
HKLF	≤ 0.2
EMTS	≤ 0.2
LVCL	≤ 0.2
VPGI	≤ 0.2
VLNR	≤ 0.2
VFAC	≤ 0.2
CMNE	≤ 0.2
VTHR	≤ 0.2
GMLV	≤ 0.2
RACQ	≤ 0.2
QELE	≤ 0.2
YMPY	≤ 0.2
HPPV	≤ 0.2
RQLF	≤ 0.2

Variant	one-hybrid fitness for binding NBS DNA
HWGV	≤ 0.2
TLFK	≤ 0.2
YMDV	≤ 0.2
NGKV	≤ 0.2
ATVF	≤ 0.2
SVGN	≤ 0.2
WLNR	≤ 0.2
HTKR	0.266
RVTD	≤ 0.2
YGFS	≤ 0.2
VIEK	≤ 0.2
DGAV	≤ 0.2
REET	≤ 0.2
TSRL	≤ 0.2
RACV	≤ 0.2
WISG	≤ 0.2
GKLD	≤ 0.2
DHMV	≤ 0.2
LEQC	≤ 0.2
MHLE	≤ 0.2
EACT	≤ 0.2
GLHS	≤ 0.2
NQQR	≤ 0.2
RDSN	≤ 0.2

Variant	one-hybrid fitness for binding NBS DNA
KKRK	≤ 0.2
QLMS	0.252
HNQL	≤ 0.2
AWAG	≤ 0.2
RRMG	0.317
RNFY	≤ 0.2
EGWP	≤ 0.2
FLNG	≤ 0.2
CLCL	≤ 0.2
GCSH	≤ 0.2
AVVC	≤ 0.2
TPNT	≤ 0.2
CGSL	≤ 0.2
NSFS	≤ 0.2
VWEP	≤ 0.2
RPCE	≤ 0.2
QTDC	≤ 0.2
PYLK	≤ 0.2
VVAT	≤ 0.2
FNAG	≤ 0.2
QQYC	≤ 0.2
GSQG	≤ 0.2
PLMR	≤ 0.2
IQRT	≤ 0.2

Variant	one-hybrid fitness for binding NBS DNA
YDTW	≤ 0.2
VNYS	≤ 0.2
GYTS	≤ 0.2
DHPG	≤ 0.2
KWLG	≤ 0.2
NGSS	≤ 0.2
PQFI	≤ 0.2
YQGR	≤ 0.2
KCVG	≤ 0.2
PVPA	≤ 0.2
QRQW	0.276
DMPG	≤ 0.2
VRST	0.229
HRDH	≤ 0.2
IKVG	≤ 0.2
DQAE	≤ 0.2
LYRP	≤ 0.2
QSRF	0.265
PHIW	≤ 0.2
DFRG	≤ 0.2
QMPT	0.312
AHLL	≤ 0.2
GNRV	≤ 0.2
TREG	≤ 0.2

Variant	one-hybrid fitness for binding NBS DNA
VRII	≤ 0.2
QRGQ	0.435
KIFC	≤ 0.2
RKGN	≤ 0.2
RLFC	≤ 0.2
GCPL	≤ 0.2
QVGP	≤ 0.2
KMLS	≤ 0.2
LSNW	≤ 0.2
QKSY	≤ 0.2
EKQN	≤ 0.2
ALEY	≤ 0.2
VPWY	≤ 0.2
TDFC	≤ 0.2
PHTR	≤ 0.2
YIDT	≤ 0.2
LKTT	≤ 0.2
IRQL	≤ 0.2
YDRI	≤ 0.2
HTAC	≤ 0.2
TGYW	≤ 0.2
RQLL	≤ 0.2
WFTT	≤ 0.2
MAYM	≤ 0.2

Variant	one-hybrid fitness for binding NBS DNA
GDMR	≤ 0.2
QEFY	≤ 0.2
ESCS	≤ 0.2
KHAT	≤ 0.2
VPAG	≤ 0.2
KALE	≤ 0.2
HKKM	≤ 0.2
DHRL	≤ 0.2
AWWR	≤ 0.2
LHDR	≤ 0.2
HYGL	≤ 0.2
NGKS	≤ 0.2
RCAK	≤ 0.2
CTHC	≤ 0.2
QDGT	≤ 0.2
VSAR	≤ 0.2
QIQT	0.283
RVWH	≤ 0.2
HWEG	≤ 0.2
RFVG	≤ 0.2
TICT	≤ 0.2
EALH	≤ 0.2
HFVC	≤ 0.2
PSYG	≤ 0.2

Variant	one-hybrid fitness for binding NBS DNA
TVVI	≤ 0.2
SQAM	≤ 0.2
QGHS	≤ 0.2
TIQE	≤ 0.2
RTYQ	≤ 0.2
SNKC	≤ 0.2
LEDR	≤ 0.2
EANT	≤ 0.2
WCYC	≤ 0.2
VNER	≤ 0.2
NTLP	≤ 0.2
TPLR	≤ 0.2
PQTL	≤ 0.2
QQCF	≤ 0.2
AKAI	≤ 0.2
NVMG	≤ 0.2
VFGS	≤ 0.2
NSDA	≤ 0.2
